# Laboratory results reported in PubChem BioAssay AID1508623 (National Center for Advancing Translational Sciences (NCATS), 2021).
# The campaign covered roughly 48,000 compounds. About 450 (0.94%) were called active. Inconclusive means that the source gave no clear call. Such entries were picked first, then a sample of the others. Calls follow the shape of the dose curve; as a rule, active = well fitted inhibition curve with a large enough effect; inconclusive = small, poorly fitted or top-dose-only effect; inactive = no such curve, though single readings can be large or run the other way. Potencies of inconclusive entries are doubtful fits and often do not repeat.
# Assay: Primary qHTS for Identification of Small Molecule Inhibitors of Huntingtin Promoter Activity; also: nearly all actives have a fitted effect of over 50% in size
# Conditions: HEK293 HTT promoter firefly luciferase reporter (activity 0% = vehicle and -100% = no light), 24 h; series mostly up to 57.5 µM
# Outline: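 HEK293 Fluc reporter, 2,500 cells/well, 24 h pre-culture; cpds up to 57.5 uM final, 24 h 37 degrees C; Dual-Glo, 10 min RT; normalized vehicle = 0%, zero RLU = -100%.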
# Potency is read from the fitted curve at half-maximal effect; tags tell the direction and shape of the fitted curve.
row,SMILES,Potency
1,Cc1cc(Nc2cc(N3CCN(C)CC3)nc(C=Cc3ccccc3)n2)n[nH]1,"inconclusive: 44.4 µM [inhibitor, partial curve]"
2,CCN1C(=O)c2ccccc2S(=O)c2ccc(C(=O)N3CCN(c4cc(Cl)ccc4C)CC3)cc21 (stereo not drawn),"inconclusive: 35.5 µM [inhibitor, partial curve, poor fit]"
3,CN(Cc1ccccc1)C(=O)c1ccc2c(c1)N(Cc1ccccc1Cl)C(=O)c1ccccc1S2,"inconclusive: 22.4 µM [inhibitor, single point]"
4,Nc1ccc([N+](=O)[O-])c(C(F)(F)F)c1,inactive
5,CC(=O)SCC(Cc1ccccc1)C(=O)NCC(=O)OCc1ccccc1 (stereo not drawn),"inconclusive: 0.863 µM [inhibitor, full curve]"
6,Cc1cccc(-c2nnc(C3CCN(S(=O)(=O)c4cccc(Cl)c4)CC3)o2)c1,"inconclusive: 14.1 µM [inhibitor, partial curve, poor fit]"
7,CCOC(=O)c1c(C)[nH]c(C)c1S(=O)(=O)N1CCCC(C(=O)N2CCN(c3cccc(C)c3C)CC2)C1 (stereo not drawn),"inconclusive: 39.8 µM [inhibitor, single point]"
8,COC(=O)C1=C(C)NC(C)=C(C(=O)OC(C)C)C1c1cccc2nonc12 (stereo not drawn),"inconclusive: 9.68 µM [inhibitor, partial curve]"
9,CCCCn1cc2c(c1-c1ccc(Cl)cc1)c(=O)n(C)c(=O)n2C,"inconclusive: 39.8 µM [inhibitor, single point]"
10,Cc1cc(C)cc(NS(=O)(=O)c2cc3c(cc2C)NC(=O)CO3)c1,"inconclusive: 20 µM [inhibitor, partial curve, poor fit]"
11,CN1N=C(N)c2cn([C@@H]3O[C@H](COP(=O)(O)O)[C@@H](O)[C@@H]3O)c3ncnc1c23,inactive
12,Cn1c(Nc2ccc(C(F)(F)F)cc2)nc2cc(Oc3ccnc(-c4ncc(C(F)(F)F)[nH]4)c3)ccc21,"inconclusive: 7.69 µM [inhibitor, partial curve]"
13,CCCN(C(=O)Cn1cnc2onc(-c3ccc(F)cc3)c2c1=O)c1cccc(Cl)c1,"inconclusive: 12.6 µM [inhibitor, partial curve, poor fit]"
14,CCC(Sc1nc2ccccc2c(=O)n1CCc1ccc(OC)c(OC)c1)C(=O)N(CC)CC (stereo not drawn),"inconclusive: 31.6 µM [inhibitor, partial curve, poor fit]"
15,COC(=O)c1c(NC(=O)CCCOc2cccc(C)c2)sc2c1C(C(=O)OC)CC2 (stereo not drawn),"inconclusive: 28.2 µM [inhibitor, single point]"
16,CCc1ccc(CN(Cc2cn[nH]c2-c2ccc(OC)cc2)C(=O)Nc2cc(Cl)ccc2OC)cc1,"inconclusive: 31.6 µM [inhibitor, single point]"
17,Cc1ccc(-n2ncc3c(NC4CCCCCC4)ncnc32)cc1Cl,"inconclusive: 28.2 µM [inhibitor, partial curve, poor fit]"
18,Cc1cccc(N2CCN(C(=O)CCn3c(=O)c4cccn4c4cccnc43)CC2C)c1 (stereo not drawn),"inconclusive: 31.6 µM [inhibitor, single point]"
19,CCc1ccccc1NC(=O)c1cnc2sc(N3CCCC3)nn2c1=O,inactive

row,SMILES,Potency
1,COc1cccc(N2CCN(C(=O)Cn3c(-c4cccs4)cc4ccccc43)CC2)c1,"inconclusive: 17.8 µM [inhibitor, single point]"
2,CCOC(=O)c1c(C)[nH]c(CCC(=O)NCc2ccc(N(C)C)cc2)c1C,"inconclusive: 31.6 µM [inhibitor, single point]"
3,COc1ccc(CNc2oc(-c3ccc(COc4ccccc4C)o3)nc2C#N)cc1,active: 20 µM
4,CC1=C(c2ccc(C)cc2)S(=O)(=O)NC1=NCCCN1CCN(c2ccc(F)cc2)CC1,"inconclusive: 35.5 µM [inhibitor, single point]"
5,Cc1ccc(C)c(Cn2c(C3CC(=O)N(c4ccccc4C)C3)nc3ccccc32)c1 (stereo not drawn),"inconclusive: 31.6 µM [inhibitor, single point]"
6,O=C(NCCc1ccccc1Cl)c1ccc2c(c1)nc1n2CCCCC1,"inconclusive: 8.91 µM [inhibitor, partial curve, poor fit]"
7,COc1ccc(Cn2ccc3nc(C)c(C(=O)NCc4ccc(F)cc4)cc3c2=O)cc1,"inconclusive: 3.55 µM [inhibitor, partial curve, poor fit]"
8,COCCCNc1oc(-c2ccc(COc3ccc(Cl)cc3)o2)nc1C#N,"inconclusive: 20 µM [inhibitor, partial curve, poor fit]"
9,O=C(Cn1nnc(-c2ccccc2Cl)n1)Nc1ccc(Br)cc1,inactive
10,O=C(NCCCN1CCN(c2ccc(F)cc2)CC1)c1ccc2nc(Cc3ccccc3)oc2c1,"inconclusive: 22.4 µM [inhibitor, partial curve, poor fit]"
11,COc1ccc(NC(=O)c2c(-c3ccc(C)cc3)nnc3ccccc23)c(OC)c1,inactive
12,S=C(NCc1ccc2c(c1)OCO2)N1CCN(c2ncnc3c2oc2ccccc23)CC1,"inconclusive: 1.57 µM [inhibitor, full curve]"
13,O=[N+]([O-])c1ccc(/C=N\O)o1,inactive
14,Cc1ccc(NC(=O)c2sc3nc4c(cc3c2N)CN(Cc2ccccc2)CC4)cc1,inactive
15,CC(=O)Oc1cc2c(s1)CCN(C(C(=O)C1CC1)c1ccccc1F)C2 (stereo not drawn),"inconclusive: 24.3 µM [inhibitor, single point]"
16,CCOC(=O)c1cccc(NC(=O)NCc2ccc3c(c2)CCN3C(=O)c2ccccc2)c1,"inconclusive: 22.4 µM [inhibitor, single point]"
17,CCN(CC)CCCCNc1nc2cc(Cl)c(Cl)cc2nc1-c1ccc(-c2cccs2)s1,"inconclusive: 24.3 µM [inhibitor, partial curve, poor fit]"
18,CCc1ccccc1NC(=O)C(=O)NCC(c1cccnc1)N1CCN(c2ccccc2F)CC1 (stereo not drawn),"inconclusive: 39.8 µM [inhibitor, single point]"
19,Cc1ccc(NS(=O)(=O)c2ccc3c(c2)CCCN3C(=O)C2CCC2)c(C)c1,"inconclusive: 28.2 µM [inhibitor, partial curve, poor fit]"
